Among the data in publication PMC11260466, “Binding of the TRF2 iDDR motif to RAD50 highlights a convergent evolutionary strategy to inactivate MRN at telomeres” are binding values, retold here.

By UniProt entry, the sequences of proteins in these tests, tags left out. Where a name states a change or a piece, a line headed by the entry shows the natural chain unless it says otherwise. Chains listed by the source or under a name are the forms on record and can include a tag or linker.
GAD-HsRAD50 'head' (HsRAD50h fused to the Gal4 GAD domain) (Q92878, form named): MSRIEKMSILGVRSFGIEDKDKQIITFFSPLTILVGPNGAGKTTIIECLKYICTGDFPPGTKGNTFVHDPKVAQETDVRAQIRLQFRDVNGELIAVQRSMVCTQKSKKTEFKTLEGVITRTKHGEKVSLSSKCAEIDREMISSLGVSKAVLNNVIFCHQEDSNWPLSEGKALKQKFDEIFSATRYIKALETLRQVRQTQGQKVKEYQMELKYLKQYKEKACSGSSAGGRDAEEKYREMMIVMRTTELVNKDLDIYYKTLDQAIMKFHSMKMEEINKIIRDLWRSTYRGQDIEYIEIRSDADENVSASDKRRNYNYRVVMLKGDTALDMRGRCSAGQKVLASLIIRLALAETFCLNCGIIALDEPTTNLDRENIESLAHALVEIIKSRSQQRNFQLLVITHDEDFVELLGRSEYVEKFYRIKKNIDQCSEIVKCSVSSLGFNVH
GAD-HsRAD50 head Thr119Ala (Q92878, form named): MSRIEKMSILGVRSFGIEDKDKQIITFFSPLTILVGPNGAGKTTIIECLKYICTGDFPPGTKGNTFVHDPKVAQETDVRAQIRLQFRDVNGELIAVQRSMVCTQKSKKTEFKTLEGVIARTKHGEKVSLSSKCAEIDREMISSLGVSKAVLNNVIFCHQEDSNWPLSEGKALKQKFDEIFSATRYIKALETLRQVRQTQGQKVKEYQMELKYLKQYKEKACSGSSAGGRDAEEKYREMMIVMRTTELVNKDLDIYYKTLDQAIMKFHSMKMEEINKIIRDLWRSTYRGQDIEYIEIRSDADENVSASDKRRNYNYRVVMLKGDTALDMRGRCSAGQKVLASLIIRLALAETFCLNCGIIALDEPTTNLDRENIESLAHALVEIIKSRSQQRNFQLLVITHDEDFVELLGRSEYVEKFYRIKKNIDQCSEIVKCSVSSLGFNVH
GAD-HsRAD50 head Ile24Ala (Q92878, form named): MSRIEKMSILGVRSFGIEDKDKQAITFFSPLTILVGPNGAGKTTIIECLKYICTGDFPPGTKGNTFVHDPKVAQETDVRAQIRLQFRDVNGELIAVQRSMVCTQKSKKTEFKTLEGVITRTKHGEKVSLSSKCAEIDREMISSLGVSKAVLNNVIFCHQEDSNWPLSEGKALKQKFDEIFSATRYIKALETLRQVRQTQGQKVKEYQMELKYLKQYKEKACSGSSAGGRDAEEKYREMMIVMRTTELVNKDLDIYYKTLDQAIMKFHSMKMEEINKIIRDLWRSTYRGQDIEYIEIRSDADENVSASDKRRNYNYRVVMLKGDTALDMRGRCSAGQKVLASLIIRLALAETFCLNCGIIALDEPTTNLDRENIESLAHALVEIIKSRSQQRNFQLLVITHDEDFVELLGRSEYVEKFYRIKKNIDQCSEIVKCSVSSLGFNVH
GAD-HsRAD50 head Glu5Ala (Q92878, form named): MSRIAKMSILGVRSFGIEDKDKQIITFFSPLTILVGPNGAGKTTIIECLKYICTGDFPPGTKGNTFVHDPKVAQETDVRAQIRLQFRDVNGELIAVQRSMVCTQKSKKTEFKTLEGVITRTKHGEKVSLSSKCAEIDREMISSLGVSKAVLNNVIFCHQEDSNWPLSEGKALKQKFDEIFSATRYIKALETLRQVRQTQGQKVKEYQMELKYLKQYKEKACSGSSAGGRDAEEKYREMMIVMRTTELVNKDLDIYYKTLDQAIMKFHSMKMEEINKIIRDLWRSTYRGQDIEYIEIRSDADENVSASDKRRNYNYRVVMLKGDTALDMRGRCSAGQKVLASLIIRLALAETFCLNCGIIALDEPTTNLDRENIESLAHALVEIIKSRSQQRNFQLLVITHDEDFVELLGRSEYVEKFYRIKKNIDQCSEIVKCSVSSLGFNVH
GAD-HsRAD50 head Gln85Ala (Q92878, form named): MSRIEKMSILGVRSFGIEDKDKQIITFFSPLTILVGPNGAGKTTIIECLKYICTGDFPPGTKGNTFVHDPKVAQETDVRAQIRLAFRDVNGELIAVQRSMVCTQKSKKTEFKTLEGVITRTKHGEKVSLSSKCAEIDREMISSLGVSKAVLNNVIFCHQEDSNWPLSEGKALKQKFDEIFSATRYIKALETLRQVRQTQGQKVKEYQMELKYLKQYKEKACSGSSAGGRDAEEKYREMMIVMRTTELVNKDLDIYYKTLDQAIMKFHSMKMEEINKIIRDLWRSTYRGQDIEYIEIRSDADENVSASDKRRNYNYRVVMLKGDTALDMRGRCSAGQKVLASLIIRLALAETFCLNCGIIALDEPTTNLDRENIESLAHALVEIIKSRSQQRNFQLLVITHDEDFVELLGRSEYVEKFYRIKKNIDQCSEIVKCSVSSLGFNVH
GAD-HsRAD50 head Val117Ala (Q92878, form named): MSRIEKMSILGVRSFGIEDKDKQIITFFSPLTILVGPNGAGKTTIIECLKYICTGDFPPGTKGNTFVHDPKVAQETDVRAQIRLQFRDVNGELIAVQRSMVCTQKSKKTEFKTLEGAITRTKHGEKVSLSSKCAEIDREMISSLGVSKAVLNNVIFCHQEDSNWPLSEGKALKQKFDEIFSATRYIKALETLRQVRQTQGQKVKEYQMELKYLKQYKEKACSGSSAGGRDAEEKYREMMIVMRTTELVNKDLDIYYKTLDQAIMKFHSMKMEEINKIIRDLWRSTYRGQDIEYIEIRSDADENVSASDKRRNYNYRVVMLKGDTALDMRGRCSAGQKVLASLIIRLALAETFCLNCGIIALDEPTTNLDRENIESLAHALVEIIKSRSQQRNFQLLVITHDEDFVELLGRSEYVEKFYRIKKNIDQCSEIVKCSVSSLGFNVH
GAD-HsRAD50 head Arg83Glu (Q92878, form named): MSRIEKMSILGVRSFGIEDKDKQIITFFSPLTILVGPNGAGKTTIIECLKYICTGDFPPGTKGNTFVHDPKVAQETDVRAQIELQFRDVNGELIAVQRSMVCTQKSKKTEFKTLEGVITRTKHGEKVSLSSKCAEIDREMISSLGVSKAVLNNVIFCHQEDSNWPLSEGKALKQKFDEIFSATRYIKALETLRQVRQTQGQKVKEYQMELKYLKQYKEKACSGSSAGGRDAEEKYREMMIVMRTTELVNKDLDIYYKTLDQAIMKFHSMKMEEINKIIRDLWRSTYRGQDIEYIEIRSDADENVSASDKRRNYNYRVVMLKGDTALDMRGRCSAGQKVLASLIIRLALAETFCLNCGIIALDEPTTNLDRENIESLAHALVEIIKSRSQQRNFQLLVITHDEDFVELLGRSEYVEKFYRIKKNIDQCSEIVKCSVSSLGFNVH
GAD-HsRAD50 head Lys112Ala (Q92878, form named): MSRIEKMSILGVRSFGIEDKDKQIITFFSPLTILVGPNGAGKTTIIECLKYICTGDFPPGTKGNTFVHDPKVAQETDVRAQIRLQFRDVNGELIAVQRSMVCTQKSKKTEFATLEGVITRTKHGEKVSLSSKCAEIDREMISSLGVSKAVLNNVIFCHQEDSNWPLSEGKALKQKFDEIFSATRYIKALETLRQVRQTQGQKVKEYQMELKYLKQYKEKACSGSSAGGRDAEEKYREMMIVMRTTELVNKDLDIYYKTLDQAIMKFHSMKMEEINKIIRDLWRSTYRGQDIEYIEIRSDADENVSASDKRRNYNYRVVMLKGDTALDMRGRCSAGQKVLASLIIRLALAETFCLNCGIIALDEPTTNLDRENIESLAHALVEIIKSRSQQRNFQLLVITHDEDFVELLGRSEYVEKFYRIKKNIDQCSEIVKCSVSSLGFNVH
GAD-HsRAD50 head Gln97Ala (Q92878, form named): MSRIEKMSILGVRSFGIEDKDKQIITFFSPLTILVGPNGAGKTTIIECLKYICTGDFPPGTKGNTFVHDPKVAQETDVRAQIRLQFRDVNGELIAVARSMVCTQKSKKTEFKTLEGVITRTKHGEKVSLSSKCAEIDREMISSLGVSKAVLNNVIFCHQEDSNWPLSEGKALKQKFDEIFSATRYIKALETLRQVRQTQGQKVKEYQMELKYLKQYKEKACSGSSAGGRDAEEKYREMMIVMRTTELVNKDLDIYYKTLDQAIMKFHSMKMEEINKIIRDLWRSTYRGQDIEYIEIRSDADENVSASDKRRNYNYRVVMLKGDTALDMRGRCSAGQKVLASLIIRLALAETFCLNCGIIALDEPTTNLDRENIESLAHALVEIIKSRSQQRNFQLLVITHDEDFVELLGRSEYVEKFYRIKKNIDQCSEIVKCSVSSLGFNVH
GAD-HsRAD50 head Asp19Ala (Q92878, form named): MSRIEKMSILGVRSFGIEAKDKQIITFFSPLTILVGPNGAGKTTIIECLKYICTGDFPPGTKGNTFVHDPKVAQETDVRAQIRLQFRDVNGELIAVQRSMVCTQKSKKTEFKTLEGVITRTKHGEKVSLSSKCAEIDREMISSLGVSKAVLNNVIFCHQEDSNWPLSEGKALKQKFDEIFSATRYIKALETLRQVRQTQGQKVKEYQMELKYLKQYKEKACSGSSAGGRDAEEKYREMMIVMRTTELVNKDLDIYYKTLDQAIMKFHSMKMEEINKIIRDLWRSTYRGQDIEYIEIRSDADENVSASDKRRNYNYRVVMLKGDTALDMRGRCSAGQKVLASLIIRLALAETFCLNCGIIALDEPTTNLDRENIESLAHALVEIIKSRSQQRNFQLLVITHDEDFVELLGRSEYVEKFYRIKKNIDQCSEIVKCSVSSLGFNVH
GAD-HsRAD50 head Leu93Ala (Q92878, form named): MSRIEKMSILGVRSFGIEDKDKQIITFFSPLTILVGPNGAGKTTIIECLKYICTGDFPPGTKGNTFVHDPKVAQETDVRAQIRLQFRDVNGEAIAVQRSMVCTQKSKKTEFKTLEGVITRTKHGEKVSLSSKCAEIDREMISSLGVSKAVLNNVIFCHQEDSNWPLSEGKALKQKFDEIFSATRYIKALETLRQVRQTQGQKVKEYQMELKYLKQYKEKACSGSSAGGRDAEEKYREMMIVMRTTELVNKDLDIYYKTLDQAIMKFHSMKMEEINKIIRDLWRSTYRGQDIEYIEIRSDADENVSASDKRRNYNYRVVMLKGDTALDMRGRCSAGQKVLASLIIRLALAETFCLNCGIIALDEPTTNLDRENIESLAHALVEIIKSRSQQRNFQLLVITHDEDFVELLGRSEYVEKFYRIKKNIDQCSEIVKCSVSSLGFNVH

Results are given in words; binding and its absence hold for the method and conditions named. Some entries that bind do so weakly or less than the wild type. For some of these results: Tags and fused reporters may be left off the sequences shown.

To fix the notation:
B1: HsSTN1 (protein, UniProt Q9H668 1-368)
chain: MQPGSSRCEEETPSLLWGLDPVFLAFAKLYIRDILDMKESRQVPGVFLYNGHPIKQVDVLGTVIGVRERDAFYSYGVDDSTGVINCICWKKLNTESVSAAPSAARELSLTSQLKKLQETIEQKTKIEIGDTIRVRGSIRTYREEREIHATTYYKVDDPVWNIQIARMLELPTIYRKVYDQPFHSSALEKEEALSNPGALDLPSLTSLLSEKAKEFLMENRVQSFYQQELEMVESLLSLANQPVIHSASSDQVNFKKDTTSKAIHSIFKNAIQLLQEKGLVFQKDDGFDNLYYVTREDKDLHRKIHRIIQQDCQKPNHMEKGCHFLHILACARLSIRPGLSEAVLQQVLELLEDQSDIVSTMEHYYTAF
B2: HsTEN1 (protein, UniProt Q86WV5 1-123)
chain: MMLPKPGTYYLPWEVSAGQVPDGSTLRTFGRLCLYDMIQSRVTLMAQHGSDQHQVLVCTKLVEPFHAQVGSLYIVLGELQHQQDRGSVVKARVLTCVEGMNLPLLEQAIREQRLYKQERGGSQ
B3: HsCTC1 (protein, UniProt Q2NKJ3 1-1217)
chain: MAAGRAQVPSSEQAWLEDAQVFIQKTLCPAVKEPNVQLTPLVIDCVKTVWLSQGRNQGSTLPLSYSFVSVQDLKTHQRLPCCSHLSWSSSAYQAWAQEAGPNGNPLPREQLLLLGTLTDLSADLEQECRNGSLYVRDNTGVLSCELIDLDLSWLGHLFLFPRWSYLPPARWNSSGEGHLELWDAPVPVFPLTISPGPVTPIPVLYPESASCLLRLRNKLRGVQRNLAGSLVRLSALVKSKQKAYFILSLGRSHPAVTHVSIIVQVPAQLVWHRALRPGTAYVLTELRVSKIRGQRQHVWMTSQSSRLLLLKPECVQELELELEGPLLEADPKPLPMPSNSEDKKDPESLVRYSRLLSYSGAVTGVLNEPAGLYELDGQLGLCLAYQQFRGLRRVMRPGVCLQLQDVHLLQSVGGGTRRPVLAPCLRGAVLLQSFSRQKPGAHSSRQAYGASLYEQLVWERQLGLPLYLWATKALEELACKLCPHVLRHHQFLQHSSPGSPSLGLQLLAPTLDLLAPPGSPVRNAHNEILEEPHHCPLQKYTRLQTPSSFPTLATLKEEGQRKAWASFDPKALLPLPEASYLPSCQLNRRLAWSWLCLLPSAFCPAQVLLGVLVASSHKGCLQLRDQSGSLPCLLLAKHSQPLSDPRLIGCLVRAERFQLIVERDVRSSFPSWKELSMPGFIQKQQARVYVQFFLADALILPVPRPCLHSATPSTPQTDPTGPEGPHLGQSRLFLLCHKEALMKRNFCVPPGASPEVPKPALSFYVLGSWLGGTQRKEGTGWGLPEPQGNDDNDQKVHLIFFGSSVRWFEFLHPGQVYRLIAPGPATPMLFEKDGSSCISRRPLELAGCASCLTVQDNWTLELESSQDIQDVLDANKSLPESSLTDLLSDNFTDSLVSFSAEILSRTLCEPLVASLWMKLGNTGAMRRCVKLTVALETAECEFPPHLDVYIEDPHLPPSLGLLPGARVHFSQLEKRVSRSHNVYCCFRSSTYVQVLSFPPETTISIPLPHIYLAELLQGGQSPFQATASCHIVSVFSLQLFWVCAYCTSICRQGKCTRLGSTCPTQTAISQAIIRLLVEDGTAEAVVTCRNHHVAAALGLCPREWASLLDFVQVPGRVVLQFAGPGAQLESSARVDEPMTMFLWTLCTSPSVLRPIVLSFELERKPSKIVPLEPPRLQRFQCGELPFLTHVNPRLRLSCLSIRESEYSSSLGILASSC

For one experiment, the target named is GBD-HsRAD50 'head' (HsRAD50h), amino acids 1–221,1098–1312 separated by an SGSSAGG linker (human) (UniProt Q92878). Kind of experiment: two-hybrid; GAD fusions tested against GBD-HsRAD50 head (wild type or mutant) in diploids of Y2HGold x Y187; 5-fold dilutions spotted on -LTH and, more stringent, -LTA plates; 30°C.
B1: the binding result is reported as “no binding”.

For B2, the binding result was “no binding”. Still for that read-out and setting: to B3 belongs “no binding”.

In a further experiment the target is T1, HsCtIP amino acids 849–888 fused to the GBD domain of Gal4 (human) (UniProt Q99708).
T1 sequence: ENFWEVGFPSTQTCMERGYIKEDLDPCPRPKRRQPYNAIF
Nature of the experiment: two-hybrid; HsCtIP fragments fused to GBD tested against GAD-HsRAD50 head (wild type or mutant); plates lacking histidine, stringency raised by 3-amino-1,2,4-triazole (3AT; 1 mM, 4 mM named).
As to “GAD-HsRAD50 'head' (HsRAD50h fused to the Gal4 GAD domain) (from UniProt Q92878 1-221; Q92878 1098-1312) (domain or fragment)”, the binding entry was “binds”.

The target of another experiment is HsCtIP 845–890 Phe856Ala, GBD fusion (human) (UniProt Q99708). The description is as above.
As for “GAD-HsRAD50 'head' (HsRAD50h fused to the Gal4 GAD domain) (from UniProt Q92878 1-221; Q92878 1098-1312) (domain or fragment)”, the binding entry is “binds”.

In the next experiment the target is HsCtIP amino acids 845–890 fused to the GBD domain of Gal4 (human) (UniProt Q99708). Described as above.
“GAD-HsRAD50 head Thr119Ala (from UniProt Q92878 1-221; Q92878 1098-1312) (domain or fragment)”: the binding result is listed as “binds”. Same read-out and setting: with “GAD-HsRAD50 'head' (HsRAD50h fused to the Gal4 GAD domain) (from UniProt Q92878 1-221; Q92878 1098-1312) (domain or fragment)” the entry was “binds”; with “GAD-HsRAD50 head Ile24Ala (from UniProt Q92878 1-221; Q92878 1098-1312) (domain or fragment)”, “binds”; with “GAD-HsRAD50 head Glu5Ala (from UniProt Q92878 1-221; Q92878 1098-1312) (domain or fragment)”, “binds”. Regarding “GAD-HsRAD50 head Gln85Ala (from UniProt Q92878 1-221; Q92878 1098-1312) (domain or fragment)”, the binding entry was “binds”. Same read-out and setting: with “GAD-HsRAD50 head Val117Ala (from UniProt Q92878 1-221; Q92878 1098-1312) (domain or fragment)” the entry was “binds”; with “GAD-HsRAD50 head Arg83Glu (from UniProt Q92878 1-221; Q92878 1098-1312) (domain or fragment)”, “binds”; with “GAD-HsRAD50 head Lys112Ala (from UniProt Q92878 1-221; Q92878 1098-1312) (domain or fragment)”, “binds”. Still for that read-out and setting: with “GAD-HsRAD50 head Gln97Ala (from UniProt Q92878 1-221; Q92878 1098-1312) (domain or fragment)” the entry was “binds”. The same measure, in the same setting: with “GAD-HsRAD50 head Asp19Ala (from UniProt Q92878 1-221; Q92878 1098-1312) (domain or fragment)” the entry was “binds”; with “GAD-HsRAD50 head Leu93Ala (from UniProt Q92878 1-221; Q92878 1098-1312) (domain or fragment)”, “binds”.
